Laboratory results from PubChem BioAssay AID1745853 (National Center for Advancing Translational Sciences (NCATS), 2022).
Values joined by “and” are separate entries in the source; they are usually repeats but may differ in a detail not shown here. Equal entries are not always repeated. The list shows a part of the results. Further columns of the screen follow, without active or inactive calls.

Experiments:
Experiment in all cases: Primary Screen for Target Class Profiling of Small Molecule Inhibitors of Methyltransferases
[1] = biological target: Glycine N-methyltransferase (Homo sapiens) (UniProt Q14749); details: purified enzyme, MTase-Glo SAH luminescence; measured here: GNMT inhibition; at 40 µM; stronger effect = lower value
In short: (§1)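 Each enzyme was reacted with SAM and its substrate, with compounds tested once at 40 uM; SAH formed was read by MTase-Glo luminescence.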

[2] = biological target: Guanidinoacetate N-methyltransferase (Homo sapiens) (UniProt Q14353); details: purified enzyme, MTase-Glo SAH luminescence; measured here: GAMT inhibition; at 40 µM; stronger effect = lower value
In short: as §1

[3] = biological target: Histamine N-methyltransferase (Homo sapiens) (UniProt P50135); details: purified enzyme, MTase-Glo SAH luminescence; measured here: HNMT inhibition; at 40 µM; stronger effect = lower value
In short: as §1

[4] = biological target: Nicotinamide N-methyltransferase (Homo sapiens) (UniProt P40261); details: purified enzyme, MTase-Glo SAH luminescence; measured here: NNMT inhibition; at 40 µM; stronger effect = lower value
In short: as §1

[5] = biological target: Phenylethanolamine N-methyltransferase (Homo sapiens) (UniProt P11086); details: purified enzyme, MTase-Glo SAH luminescence; measured here: PNMT inhibition; at 40 µM; stronger effect = lower value
In short: as §1
% is scaled to controls: 0 for no effect and ±100 for the full control effect.

| SMILES | activity change, negative = inhibition [1] | activity change, negative = inhibition [2] [%] | activity change, negative = inhibition [3] | activity change, negative = inhibition [4] | activity change, negative = inhibition [5] |
| --- | --- | --- | --- | --- | --- |
| CCCN1C[C@@H](CO)[C@H](c2nc(CCOC)no2)C1 | 0.439% | -2.16 | 2.45% | 1.66% | 2.37% |
| COc1cccc(-c2cc(CC3(O)CCN(c4nnc(C)o4)CC3)on2)c1 | -2.7% | -1.62 | 0.637% | -3.93% | -3.75% |
| Cc1ccc(Cn2c(=O)c3ccccc3n3c(CCC(=O)NC4CCN(Cc5ccccc5)CC4)nnc23)cc1 | -7.81% | 5.13 | -21.4% | 3.5% | -4.78% |
| O=C(NCCc1ccccc1)c1ccc2c(=O)nc3c(-c4ccccc4)n[nH]n3c2c1 | -2.38% | 1.08 | 2.64% | -2.46% | -2.96% |
| COc1ccc(Nc2ccc3c(n2)CN(Cc2ccccc2C)C(=O)CO3)cc1 | -11.1% | -5.77 | -12.4% | -18.8% | -3.94% |
| O=C(NCCc1ccccc1)C1CCC(=O)N(CCCN2CCOCC2)C1 (stereo not drawn) | -1.02% | 1.18 | 1.4% | 2.22% | -1.72% |
| Cc1ccnc(NC(=O)C(C)c2cccc(C(=O)c3ccccc3)c2)c1 (stereo not drawn) | -3.96% | 8.88 | 10.3% | -16.8% | -2.01% |
| CC(=O)Nc1c2n(c3ccccc13)CC(C)(C(=O)NC1CCCC1)N(Cc1ccccc1)C2=O (stereo not drawn) | -0.528% | 3.1 | 2.87% | 4.73% | 2.22% |
| CC(C)=CCN1Cc2ccccc2NC(=O)C12CCNC2 (stereo not drawn) | 0.111% | -1.28 | -8.7% | -3.98% | 4.46% |
| COc1cc2c(NC3CCN(C(C)C)CC3)nc(C3CCCCC3)nc2cc1OCCCN1CCCC1 | -6.91% and -3.35% | 4.81 | -81.1% and -4.43% | -44.4% and -40.3% | 2.76% and 14.4% |
| O=C(Nc1ccccc1)Nc1ccc(-c2ccc(C(=O)C3CCCC3C(=O)O)cc2)cc1 (stereo not drawn) | -19.1% | 4.93 | 9.32% | -23% | 2.94% |
| CC(C)c1cc2n(n1)CC(C)(C(=O)NC1CCCCC1)N(Cc1ccc(Cl)cc1)C2=O (stereo not drawn) | -9.12% | 2.67 | -1.93% | -6.03% | -2.71% |
| CCCn1c(=O)c2cc(Cl)ccc2n2c(SCC(=O)Nc3ccc(F)cc3)nnc12 | -2.11% | -0.069 | 4.6% | -8.73% | -2.03% |
| CCCSCCCN1C(=O)c2cc3sc(CC)cc3n2CC1(C)C(=O)NC1CCC(C)CC1 (stereo not drawn) | -0.071% | 2.07 | 4.72% | -3.21% | 0.761% |
| CC(C)Cn1c(=O)c2ccc(C(=O)NC(C)C)cc2n2c(=O)n(CC(=O)Nc3cc(F)ccc3F)nc12 | 0.78% | 3.33 | 4.56% | 0.502% | 0.925% |
| Clc1ccc(-c2nnn3c2nc(N2CCCCC2)c2ccccc23)cc1 | 2.31% | 0 | 1.84% | 7.33% | -1.1% |

| SMILES | activity change, negative = inhibition [1] | activity change, negative = inhibition [2] [%] | activity change, negative = inhibition [3] | activity change, negative = inhibition [4] | activity change, negative = inhibition [5] |
| --- | --- | --- | --- | --- | --- |
| COc1cccc(CN2CCNC(=O)C2CC(=O)N2CCNC(=O)C2)c1OC (stereo not drawn) | -3.03% | -7.1 | 0.92% | -8.25% | -10.1% |
| C#Cc1cccc(Nc2ncnc3cc(OC)c(OCCCCCCC(=O)NO)cc23)c1 | -54.3% and -40.8% | -42.7 | -65.8% and -42.3% | -51.1% and -49.1% | -62.1% and -56.2% |
| COCCN1CCC2(CCC1=O)CN(C(=O)NC(C)C)CCN2C (stereo not drawn) | -1.35% | 0.842 | 1.99% | -0.493% | 13.8% |
| O=C(O)C1CN(Cc2ccc(-c3nc4cc(Cc5ccccc5F)ccc4s3)c(F)c2)C1 | 2.43% | 5.34 | 5.25% | -7.76% | 2.64% |
| c1nc(NCC2CCOC2)c2cc(-c3ccc4c(c3)OCO4)ccc2n1 (stereo not drawn) |  | -31.2 |  | -39.3% | -50.6% |
| CC1CCC(NC(=O)C2(C)Cn3c(cc4sccc43)C(=O)N2Cc2ccccc2F)CC1 (stereo not drawn) | -2.87% | 3.39 | -1.74% | -0.065% | -7.7% |
| O=C(c1cn2ccccc2n1)N1C[C@@H](CO)[C@H](c2ccccn2)C1 | -0.019% | -1.53 | -0.2% | 1.96% | 3.72% |
| C=C(C)n1c(=O)n(Cc2ccccc2C)c2ccccc21 | -6.85% | 0.118 | -2.04% | -8.22% | -2.84% |
| FC(F)(F)c1ccc(CNc2ccc(Cc3c[nH]c4ncccc34)cn2)cc1 | -2.77% | -5.67 | -23.9% | -38.1% | -22.9% |
| CCCN1C(=O)c2c(C(=O)NCc3cccc(C)c3)ncn2CC1(C)C(=O)NCc1ccccc1 (stereo not drawn) | -1.53% | 0 | 9% | 8.87% | 5.39% |
| CC1(C(=O)NC2CCCC2)Cn2cnc(C(=O)NCCc3ccc(Cl)cc3)c2C(=O)N1C1CC1 (stereo not drawn) | 0.088% | 0 | 3.17% | 0.657% | 2.69% |
| CCOC(=O)C1=C(C)NC2=C(C(=O)CC(C)(C)C2)C1c1ccc(-c2ccccc2)cc1 (stereo not drawn) | -11.6% | -40.3 | -5.12% | -45.6% | -22.1% |
| Cc1ccc2c(c1)c1c3n2CCN(CCC(=O)O)C3CCC1 (stereo not drawn) | -10.1% | 0.821 | -2.38% | 6.62% | -8.22% |
| Cc1c(O)cc(O)c2c(=O)c(O)c(-c3ccc(O)c(O)c3)oc12 | -11.8% | 5.28 | -8.44% | -7.84% | -11.2% |
| COc1cccc2c1c(O)c(C(=O)N(C)c1ccc(C(F)(F)F)cc1)c(=O)n2C | 1.24% | -0.657 | 6.66% | -12.3% | -1.22% |
